# Reference: the RNAGym collection of RNA variant scans (doi:10.7554/elife.90254)
# Read counts are not given, so values of variants with three or more changes are uncertain.
# B1: LINE1-full (parent)
# chain: UACGUAGGUGGUUUUCCCCUGAUAGUGCUAAGGGGGCCUGGAAGUUUGGACUGGGCAGAGCUCAACACAGCGUGGCAAAGUGGCUGUGGCUAGACUGCCUCUCUGGAUUCCUCGUCACUCAGCAGGGCAUCUCUGAGAGAAAUGCC
# Variants of: B1
# Experiment: self-cleavage, relative activity (ratio to wild type); higher = more cleavage; in vitro, sequencing; the parent is a self-cleaving ribozyme
row,Variant,self-cleavage
1,A6U G8C G74A A107G A142G,1.41
2,A6U G10A G48U,0.35
3,A6U G27A C95U,0.22
4,A6U G35U A64C G105A,0.34
5,A6U G36A A117G,0.69
6,A6U G40A A42G A121U,1.28
7,A6U G44A U45C C90G U104C,0.14
8,A6U G75A U91C U96C U112C A141G,0.11
9,A6U G75C U81C,0.57
10,A6U G135A A141G,1.49
11,A6U U9A U39A,0.67
12,A6U U9C A50G,0.74
13,A6U U9C U20G U52A A59G U104C U112A G137A,1.84
14,A6U U9G C101G,0.37
15,A6U U13A A31U U39C A94U,0.6
16,A6U U13C A43U,1.19
17,A6U U13C U102C A129G,2.15
18,A6U U13C U143A,1.38
19,A6U U14C A65U,0.57
20,A6U U14C U15C G35U A57G,1.37
21,A6U U14C U46C A67U A69G U87A,1.28
22,A6U U14C U62C U91C,0
23,A6U U26A U109A A129U U130C,0.8
24,A6U U29A A107G,0.26

row,Variant,self-cleavage
1,A6U U29C U73C,0
2,A6U U39A A42G A57G A124U A138U A142G,1.21
3,A6U U39A U62C,0.18
4,A6U U46C A67G U100C,0.84
5,A6U U46C U52A A59G A140G,0.33
6,A6U U73C A121G,0
7,A6U U87C A141G,0.2
8,A6U U109G U112C,1.38
9,A6U U119A U132C,1.18
10,A6U U119C A140G,2.14
11,G7A A22G A77G,2.32
12,G7A A30G U130A,0.55
13,G7A A42G U100A U119C,1.23
14,G7A A43G U87A U91C,0
15,G7A A43U U46C,0.69
16,G7A A50U U73C,1.38
17,G7A A59G U109A A138G,0.03
18,G7A A64G G83A,0.23
19,G7A A69G G114A U143C,0.44
20,G7A A78U U100C,0.69
21,G7A A124G A129G,1.12
22,G7A G21A A79G U87C U96A U132A,0.16
23,G7A G33A U130G,1.16
24,G7A G82A U87C,0.36

row,Variant,self-cleavage
1,G7A U9C U108C,1.59
2,G7A U9G A107U,0.88
3,G7A U13C U15A U132C,1.19
4,G7A U15A U100C,0.61
5,G7A U15A U132C A141G,0.57
6,G7A U15C C101U U119A,1.15
7,G7A U23A A78G A79G U87A U96C,0
8,G7A U47A G82U U132C,1.04
9,G7A U52C A138G,1.65
10,G7A U85C U119A A124G,0
11,G7A U96A U109A C113A,0.03
12,G7A U104C A121U,1.94
13,G7A U130C U132C,1.29
14,G7C A30G A117G,0.95
15,G7C A30G G86A A124G G126A U134C,0.03
16,G7C A78G A79U U96C U119C,0.84
17,G7C A79G U102C,0.88
18,G7C A129C U132C,1.38
19,G7C U9C U20C A30G A107G,0
20,G7C U14C A50U,0.96
21,G7C U15C U45C A65G U100C C113U,0.51
22,G7U A30G C90U U108C,0.04
23,G7U A50U A64G,0.14
24,G7U A57U A64C,0.12

row,Variant,self-cleavage
1,G7U A67C C116U,0.08
2,G7U A67U A138G,0.21
3,G7U A77G U85C,0.48
4,G7U A77G U115A,2.22
5,G7U A78G C99U A136U,0.5
6,G7U G32U U96C U134C,0.27
7,G7U G40A A142G,1.29
8,G7U U9C U47A G127A,2.14
9,G7U U12G U20A U73A C111U,1.65
10,G7U U13C G35A A107G,1.06
11,G7U U14C A77G C84A A142G,0.38
12,G7U U14C G54A A67G,0.33
13,G7U U15A U81C C103A A136G,0.8
14,G7U U15C G33U C68A,0.05
15,G7U U20C G49A A59G A94G G125A C128U,0.1
16,G7U U20C U73C A117G,0.84
17,G7U U52C A121U,1.53
18,G7U U81C A136U,1.67
19,G8A A22G U52C U134G,1.15
20,G8A A31G G36A,1.17
21,G8A A31U A124G U130A,0
22,G8A A42G U96C U109A A124U,0.1
23,G8A A57U A77G,0.15
24,G8A A59G A77G U85A,0.2

row,Variant,self-cleavage
1,G8A A59G U130C,0.18
2,G8A A67G G70A,0.06
3,G8A A78G U109C A121U,0.97
4,G8A C16A A136U,0.09
5,G8A C17A U45C,0.35
6,G8A C37G A77U U119C,1.53
7,G8A C63A A77U,0.03
8,G8A C68U A78G U130C U132C,0.19
9,G8A C76U A79G A121G,2.16
10,G8A G34A U73G U108C,1.16
11,G8A U13A U100C U104A,1.31
12,G8A U13C A59G G114U U115C,0.18
13,G8A U13C G35U,2.2
14,G8A U13C G55C A69G A77G U130C,0
15,G8A U14C G27A A42C C63A A65U U100G U119A,0.19
16,G8A U20A A77G U96C,0.3
17,G8A U20C U39C,0.61
18,G8A U23C U109A,1.97
19,G8A U29C U45A,1.15
20,G8A U45C A65G U73G U112A,0
21,G8A U47A U87C A117G,1.06
22,G8A U109A C116U,1.01
23,G8A U112C A124G A136G,0.77
24,G8A U119G A124G U132C,1.84

row,Variant,self-cleavage
1,G8C C18A G126C A138U,1.15
2,G8C U9C C145U,0.94
3,G8C U15C A31U U87A,0.32
4,G8C U46C C68U,0.37
5,G8C U47C A94G C131A,0.56
6,G8C U108A A138G,1.5
7,G8U A31C U96C,0.11
8,G8U A64G U130C,1.08
9,G8U A94U U96A,0.05
10,G8U C16U U132A,0
11,G8U U12C U29A,1.43
12,G8U U14C U96C,0.16
13,G8U U20A U96A U104C U119A,0.54
14,G8U U45C U96A A142G,0.09
15,G8U U62C A64U U73C,0.06
16,G8U U81A U102C,2.93
17,G8U U96C U112C,0.27
18,U9A A22G A43G A79G,0.79
19,U9A A22G A50G U62C U130A A141G,0
20,U9A A22G A64U A124U,0.55
21,U9A A22G U39C U46A G54A,0.41
22,U9A A24G U39A C61U,0
23,U9A A24U A65U U102A,0.15
24,U9A A30C A42G,1.62

row,Variant,self-cleavage
1,U9A A31U A140G,1.09
2,U9A A31U U112C,0.86
3,U9A A42G A64G U81A A136G,0.57
4,U9A A42G A65U A79C U115C,0
5,U9A A42G A124U A142G,0.75
6,U9A A42G A136U,0.69
7,U9A A42G U96C,0
8,U9A A43G A64G U115C A142G,0
9,U9A A50G A78U U87C,0.06
10,U9A A50U A64G,0.22
11,U9A A50U G53A C71U U108C,0.17
12,U9A A57G A140G,0.92
13,U9A A57G U81C,1.15
14,U9A A57G U119C,1.38
15,U9A A57U U112C,0.04
16,U9A A59G U104C C118U U130C,0
17,U9A A59G U112C,0.04
18,U9A A59U G86U U115C,0.15
19,U9A A64G A121G,0
20,U9A A64G U85C G114A,0.19
21,U9A A65G U87A A121G,0.11
22,U9A A65G U130C,0.22
23,U9A A67G C128U,0.39
